The values that follow come from PMC4336329 (PLoS ONE, 2015).

In all, about 310,000 compounds went through this assay and about 14,000 (4.5%) showed an effect of 50% or more. The effect is printed as a negative number. The list shows a part of the results.
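Further: peak tail current of the secondary pulse compared with the same well before compound.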

The target in this test is human ether-à-go-go-related gene (hERG) potassium channel (human, UniProt Q12809). The experiment in a line: primary screen, population patch clamp on CHO cells stably expressing hERG.
Sequence of human ether-à-go-go-related gene (hERG) potassium channel (Q12809 whole entry, looked up): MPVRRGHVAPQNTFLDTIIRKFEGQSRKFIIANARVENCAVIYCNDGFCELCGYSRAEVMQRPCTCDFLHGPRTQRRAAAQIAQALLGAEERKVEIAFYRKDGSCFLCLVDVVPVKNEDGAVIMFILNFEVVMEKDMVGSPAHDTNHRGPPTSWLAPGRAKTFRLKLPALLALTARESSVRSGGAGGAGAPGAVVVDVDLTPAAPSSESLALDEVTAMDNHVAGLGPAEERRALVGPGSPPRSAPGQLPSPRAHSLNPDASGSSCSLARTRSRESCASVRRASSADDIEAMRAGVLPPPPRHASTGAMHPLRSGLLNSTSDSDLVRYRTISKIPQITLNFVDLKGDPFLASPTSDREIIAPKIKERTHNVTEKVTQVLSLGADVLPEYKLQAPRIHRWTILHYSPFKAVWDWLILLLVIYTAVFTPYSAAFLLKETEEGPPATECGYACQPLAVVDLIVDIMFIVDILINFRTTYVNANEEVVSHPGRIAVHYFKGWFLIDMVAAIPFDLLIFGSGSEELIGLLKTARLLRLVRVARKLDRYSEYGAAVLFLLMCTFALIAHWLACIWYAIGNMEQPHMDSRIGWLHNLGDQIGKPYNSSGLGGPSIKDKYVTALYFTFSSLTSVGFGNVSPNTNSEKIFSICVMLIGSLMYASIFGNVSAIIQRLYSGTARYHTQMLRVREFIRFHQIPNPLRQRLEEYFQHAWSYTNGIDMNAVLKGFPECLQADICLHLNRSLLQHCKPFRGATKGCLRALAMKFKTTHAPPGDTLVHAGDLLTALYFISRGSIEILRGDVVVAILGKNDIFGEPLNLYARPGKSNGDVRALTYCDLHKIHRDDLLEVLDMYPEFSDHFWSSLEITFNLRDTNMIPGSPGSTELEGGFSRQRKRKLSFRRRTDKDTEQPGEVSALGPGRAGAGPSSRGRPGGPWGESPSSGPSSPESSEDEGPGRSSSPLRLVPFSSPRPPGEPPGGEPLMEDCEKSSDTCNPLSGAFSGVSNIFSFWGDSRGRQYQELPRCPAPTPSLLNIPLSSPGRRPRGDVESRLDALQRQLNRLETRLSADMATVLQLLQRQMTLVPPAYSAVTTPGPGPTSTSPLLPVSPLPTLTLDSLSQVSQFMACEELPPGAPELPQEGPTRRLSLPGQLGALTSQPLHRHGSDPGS
Consider `CC(C)[C@H](NC(=O)OCc1ccccc1)C(=O)OCC(=O)Nc1c(F)cccc1F`, for which the “hERG current change (%, negative = inhibition) at 10uM” value came to 0.045%.

As for `Cc1ccc(CN2CCN(/N=C/c3cc([N+](=O)[O-])ccc3Cl)CC2)cc1`, the “hERG current change (%, negative = inhibition) at 10uM” value is listed as -2.11%.

Turning to `CC(=O)N1CCN(S(=O)(=O)c2cccc(C(=O)N(Cc3ccccc3)c3cccc(C)c3)c2)CC1`, the “hERG current change (%, negative = inhibition) at 10uM” value is recorded as -27.4%.

`COc1ccc(C(=O)OCC(=O)Nc2c(C)cccc2C)c(OC)c1OC`: the “hERG current change (%, negative = inhibition) at 10uM” value turned out to be 25.8%.

On to `O=C(C1CCN(S(=O)(=O)c2cccc3cccnc23)CC1)N1CCc2ccccc21`, for which the “hERG current change (%, negative = inhibition) at 10uM” value is on record as -10.5%.

Regarding `CC(=O)c1ccc(NC2=C(N3CCOCC3)C(=O)c3ccccc3C2=O)cc1`, the “hERG current change (%, negative = inhibition) at 10uM” value is on record as -25.6%.

Regarding `N#Cc1nc(Cc2cccc3ccccc23)oc1NCCCN1CCOCC1`, the “hERG current change (%, negative = inhibition) at 10uM” value is given as -26.3%.

Consider `CC(=O)c1cccc(Nc2nc(-c3cccnc3)cs2)c1`, for which the “hERG current change (%, negative = inhibition) at 10uM” value is -9.48%.

Take `C=CCCN(Cc1ccccc1)S(=O)(=O)c1cc(Br)ccc1Br`: the “hERG current change (%, negative = inhibition) at 10uM” value turned out to be 0.208%.

For `COc1ccc2c(c1)c(=O)cc(C)n2CC(=O)NCc1ccco1`, the “hERG current change (%, negative = inhibition) at 10uM” value is -28%.

Regarding `COc1ccc(CCNS(=O)(=O)c2cn(C)c(=O)n(C)c2=O)cc1OC`, the “hERG current change (%, negative = inhibition) at 10uM” value is given as 8.4%.

With `Cc1ccc(S(=O)(=O)N(C)C)cc1NC(=S)NC(C)CCC(C)C` (stereo not shown), the “hERG current change (%, negative = inhibition) at 10uM” value is recorded as -14%.

On to `O=C(NCC(c1ccco1)N1CCCCC1)c1cccnc1` (stereo not shown), for which the “hERG current change (%, negative = inhibition) at 10uM” value is reported as -10%.

Turning to `Cc1cc(NC(=O)c2sc(Nc3ccc(F)c(Cl)c3)nc2N)no1`, the “hERG current change (%, negative = inhibition) at 10uM” value came out at 4.93%.

`COc1ccccc1NS(=O)(=O)c1cc(NC(=O)/C=C/c2cccs2)ccc1N1CCOCC1`: the “hERG current change (%, negative = inhibition) at 10uM” value is on record as -2.6%.

In the case of `O=C(O)c1ccccc1C(=O)Nn1cnnc1`, the “hERG current change (%, negative = inhibition) at 10uM” value is 10.6%.

For `CC1CCCCC1NC(=O)/C(C#N)=C/c1ccccc1F` (stereo not shown), the “hERG current change (%, negative = inhibition) at 10uM” value is reported as -7.9%.

`CC1COc2ccccc2N1C(=O)c1ccc(F)cc1` (stereo not shown): the “hERG current change (%, negative = inhibition) at 10uM” value is listed as 4.48%.

Take `Cn1cccc1CC(=O)NNC(=O)Nc1ccccc1F`: the “hERG current change (%, negative = inhibition) at 10uM” value was 7.76%.

With `CC(C)(C)c1ccc(S(=O)(=O)/N=C2\C=C(NS(=O)(=O)c3ccccc3)C(=O)c3ccccc32)cc1`, the “hERG current change (%, negative = inhibition) at 10uM” value was -2.61%.

With `Nn1c(SCC(=O)N2CCCCCC2)nnc1-c1ccncc1`, the “hERG current change (%, negative = inhibition) at 10uM” value was -9.28%.

Turning to `O=C(C1CCC(Cn2c(=S)[nH]c3ccccc3c2=O)CC1)N1CCN(c2ccccn2)CC1` (stereo not shown), the “hERG current change (%, negative = inhibition) at 10uM” value was 17.3%.

In the case of `Cc1ccc2oc(=O)c3cnn(CC(=O)NCCN4CCOCC4)c3c2c1`, the “hERG current change (%, negative = inhibition) at 10uM” value was 4.28%.

Regarding `COc1cc2c(cc1OC)C(c1ccccc1Cl)N(C)CC2` (stereo not shown), the “hERG current change (%, negative = inhibition) at 10uM” value is 1.73%.

On to `Cc1oc(S(=O)(=O)N2CCCC2)cc1C(=O)Nc1ccc(F)cc1`, for which the “hERG current change (%, negative = inhibition) at 10uM” value is -15.8%.

Consider `Cc1nc2cc(Cl)ccc2n1-c1ccccc1`, for which the “hERG current change (%, negative = inhibition) at 10uM” value is recorded as -16.3%.

For the compound `CCCc1nnc(SCC(=O)Nc2ccc(Cl)cc2Cl)o1`, the “hERG current change (%, negative = inhibition) at 10uM” value is recorded as -5%.

On to `COCCNC(=O)CCN1N=C(c2ccccc2)CCC1=O`, for which the “hERG current change (%, negative = inhibition) at 10uM” value is listed as 15%.

With `CCN(CC)CCn1c2ccccc2c2cnc(N)c(C#N)c21`, the “hERG current change (%, negative = inhibition) at 10uM” value is on record as -60.5%.

In the case of `COC(=O)Cn1ncc2c3ccccc3n(Cc3ccccc3)c2c1=O`, the “hERG current change (%, negative = inhibition) at 10uM” value is -0.623%.

As for `Cc1ccc(S(=O)(=O)[N-]c2nc3ccccc3nc2-[n+]2cc(C)cc(C)c2)cc1`, the “hERG current change (%, negative = inhibition) at 10uM” value is listed as 0.96%.

As to `CC(C)NC(=O)CN1CCN(Cc2nc(C(c3ccccc3)c3ccccc3)no2)CC1`, the “hERG current change (%, negative = inhibition) at 10uM” value is reported as -23.6%.

In the case of `CC(=O)N1CCC(=NNc2nc3ccccc3[nH]2)CC1.O=C(O)C(=O)O`, the “hERG current change (%, negative = inhibition) at 10uM” value is 24.4%.

Turning to `Cc1cccc(N(C(=O)CNC(=O)c2ccco2)C(C(=O)NCC2CCCO2)c2ccccc2)c1` (stereo not shown), the “hERG current change (%, negative = inhibition) at 10uM” value was determined as 9.57%.

`O=c1[nH]c(CSc2ccccn2)nc2c1oc1ccccc12`: the “hERG current change (%, negative = inhibition) at 10uM” value is 23%.

Regarding `O=C(COc1ccc2ccc(=O)oc2c1)NCCCn1ccnc1`, the “hERG current change (%, negative = inhibition) at 10uM” value is on record as 0.322%.

Take `CCOC(=O)C1=C(CS(=O)(=O)c2ccccc2)NC(=O)NC1c1cccc(OC)c1` (stereo not shown): the “hERG current change (%, negative = inhibition) at 10uM” value turned out to be 8.83%.

In the case of `O=C(Cn1ccsc1=NC(=O)C(F)(F)F)c1ccccc1`, the “hERG current change (%, negative = inhibition) at 10uM” value is -17.6%.

With `CCN(CC(=O)Nc1c(F)cccc1F)C(=O)c1ccc(Cl)c(S(=O)(=O)N2CCCCC2)c1`, the “hERG current change (%, negative = inhibition) at 10uM” value was found to be 8.17%.

Consider `CCCCn1c(N)c(N(CCC(C)C)C(=O)COC(=O)c2cccnc2OCC)c(=O)[nH]c1=O`, for which the “hERG current change (%, negative = inhibition) at 10uM” value is recorded as -1.62%.

Consider `Cc1oc2c(CN3CCOCC3)c(O)ccc2c(=O)c1-c1ccccc1`, for which the “hERG current change (%, negative = inhibition) at 10uM” value is reported as 18.2%.

With `Cc1ccc(S(=O)(=O)N/N=C/c2ccc(O)cc2O)cc1[N+](=O)[O-]`, the “hERG current change (%, negative = inhibition) at 10uM” value was -1.82%.

For the compound `C=CCn1c(SCC(=O)NCC2CCCO2)nc2scc(-c3ccc(OC)cc3)c2c1=O` (stereo not shown), the “hERG current change (%, negative = inhibition) at 10uM” value is recorded as -14.9%.
